According to article PMC5700166:
The entries are a selection whose mix differs from that of the whole data set. The list includes weakly bound sequences.

Key:
Test in all cases: protein-binding microarray (PBM)
Settings in all cases: PBM: ~300 nM protein, 6 mM HEPES pH 7.8, 80 mM KCl, 0.5 mM EDTA, 0.5 mM EGTA, 6% glycerol, 35 ng/ul poly-dIdC, 1% milk, 1 h, room temperature; Ap Aiptasia and Nv Nematostella (sea anemones) / Co Capsaspora / Aq Amphimedon (sponge) / Dm Drosophila / Hu human; RHD is the Rel homology domain; high values mean tight binding; most listed sequences are background and not binding sites; double strand, one strand shown
GST-Ap-NF-kB RHD = target: T1, GST-Ap-NF-kB RHD (UniProt A0A913YAJ5)
T1 sequence: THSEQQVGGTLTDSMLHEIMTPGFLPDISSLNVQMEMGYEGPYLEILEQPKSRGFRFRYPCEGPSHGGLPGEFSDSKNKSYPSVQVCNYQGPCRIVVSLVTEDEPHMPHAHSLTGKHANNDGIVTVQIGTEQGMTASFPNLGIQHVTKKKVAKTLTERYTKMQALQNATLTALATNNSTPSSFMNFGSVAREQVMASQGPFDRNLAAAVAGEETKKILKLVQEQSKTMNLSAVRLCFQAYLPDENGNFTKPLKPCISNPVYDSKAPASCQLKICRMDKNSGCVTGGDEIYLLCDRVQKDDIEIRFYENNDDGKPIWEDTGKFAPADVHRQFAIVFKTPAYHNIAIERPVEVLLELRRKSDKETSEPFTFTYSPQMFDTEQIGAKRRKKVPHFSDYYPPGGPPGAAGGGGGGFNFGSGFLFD

[1] = target: T2, GST-Nv-NF-kB (Cys allele) (UniProt E5G601)
T2 sequence: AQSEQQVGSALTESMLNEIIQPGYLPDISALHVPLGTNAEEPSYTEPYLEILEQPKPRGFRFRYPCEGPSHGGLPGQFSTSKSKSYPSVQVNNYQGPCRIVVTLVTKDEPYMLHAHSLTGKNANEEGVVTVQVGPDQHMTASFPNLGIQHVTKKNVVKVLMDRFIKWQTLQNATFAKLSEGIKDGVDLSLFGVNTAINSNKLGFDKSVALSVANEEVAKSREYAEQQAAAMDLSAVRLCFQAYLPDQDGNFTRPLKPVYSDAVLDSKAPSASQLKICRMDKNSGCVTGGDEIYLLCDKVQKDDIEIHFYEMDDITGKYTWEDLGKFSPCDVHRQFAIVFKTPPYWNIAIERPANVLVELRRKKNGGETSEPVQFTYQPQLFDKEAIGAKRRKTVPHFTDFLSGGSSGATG

GST-Co-NF-kB = target: T3, GST-Co-NF-kB (UniProt F1ARL5)
T3 sequence: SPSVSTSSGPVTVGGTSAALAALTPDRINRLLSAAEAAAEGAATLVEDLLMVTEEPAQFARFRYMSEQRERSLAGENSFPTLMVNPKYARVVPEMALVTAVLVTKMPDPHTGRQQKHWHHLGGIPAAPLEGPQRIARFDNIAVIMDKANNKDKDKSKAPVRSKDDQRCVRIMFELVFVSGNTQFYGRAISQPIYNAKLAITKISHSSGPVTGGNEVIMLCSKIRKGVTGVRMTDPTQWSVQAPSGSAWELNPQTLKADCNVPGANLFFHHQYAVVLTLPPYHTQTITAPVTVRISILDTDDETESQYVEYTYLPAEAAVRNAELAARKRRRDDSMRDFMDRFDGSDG

GST-Dm-Relish = target: T4, GST-Dm-Relish (UniProt Q94527)
T4 sequence: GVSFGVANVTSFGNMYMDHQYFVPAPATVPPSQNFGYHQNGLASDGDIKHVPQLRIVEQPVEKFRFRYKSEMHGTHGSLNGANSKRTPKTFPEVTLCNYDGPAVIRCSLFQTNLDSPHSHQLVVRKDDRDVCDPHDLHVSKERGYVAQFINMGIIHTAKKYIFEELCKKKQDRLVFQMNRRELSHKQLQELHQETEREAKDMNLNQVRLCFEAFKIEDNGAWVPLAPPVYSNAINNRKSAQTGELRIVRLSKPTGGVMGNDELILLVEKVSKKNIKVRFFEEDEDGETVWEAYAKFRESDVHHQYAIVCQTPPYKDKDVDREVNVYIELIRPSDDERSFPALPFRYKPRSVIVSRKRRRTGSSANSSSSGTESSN

GST-Aq-NF-kB = target: T5, GST-Aq-NF-kB (UniProt A9Y5G7)
T5 sequence: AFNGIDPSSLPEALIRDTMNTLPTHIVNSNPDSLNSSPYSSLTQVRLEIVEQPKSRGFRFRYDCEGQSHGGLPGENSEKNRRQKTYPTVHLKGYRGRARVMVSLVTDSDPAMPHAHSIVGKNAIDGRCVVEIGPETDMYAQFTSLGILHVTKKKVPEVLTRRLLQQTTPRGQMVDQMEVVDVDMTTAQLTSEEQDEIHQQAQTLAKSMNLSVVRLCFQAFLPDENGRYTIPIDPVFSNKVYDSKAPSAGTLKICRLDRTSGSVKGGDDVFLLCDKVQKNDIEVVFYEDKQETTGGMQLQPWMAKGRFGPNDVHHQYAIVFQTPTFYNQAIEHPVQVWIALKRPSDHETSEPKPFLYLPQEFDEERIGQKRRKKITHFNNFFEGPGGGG

Sequence	binding signal (GST-Ap-NF-kB RHD)	binding signal [1]	binding signal (GST-Co-NF-kB)	binding signal (GST-Dm-Relish)	binding signal (GST-Aq-NF-kB)
CCGATTAACATCAACGTAGTGCGTGATGTTAATCGGGTCTTGATTCGCTTGACGCTGCTG	-0.0186 z-score	-0.222 z-score	-0.108 z-score	-0.13 z-score	-0.185 z-score
CCGATTAACATCAAAATTCCTGATGATGTTAATCGGGTCTTGATTCGCTTGACGCTGCTG	0.0361 z-score	-0.16 z-score	0.485 z-score	0.546 z-score	0.666 z-score
CCGATTAACATCACGACTTCTATTGATGTTAATCGGGTCTTGATTCGCTTGACGCTGCTG	-0.248 z-score	-0.294 z-score	0.352 z-score	-0.581 z-score	-0.451 z-score
CCGATTAACATCATACCGGGTCGTGATGTTAATCGGGTCTTGATTCGCTTGACGCTGCTG	0.402 z-score	-0.00585 z-score	-0.539 z-score	-0.395 z-score	0.0659 z-score
CCGATTAACATCAAATAAATTCCTGATGTTAATCGGGTCTTGATTCGCTTGACGCTGCTG	-0.293 z-score	0.289 z-score	0.149 z-score	1.27 z-score	0.474 z-score
CCGATTAACATCACGGACATTCCTGATGTTAATCGGGTCTTGATTCGCTTGACGCTGCTG	0.243 z-score	-1.23 z-score	0.235 z-score	0.22 z-score	1.97 z-score
CCGATTAACATCATGGCTAACCTTGATGTTAATCGGGTCTTGATTCGCTTGACGCTGCTG	-0.29 z-score	-0.0594 z-score	-1.05 z-score	-0.792 z-score	-0.284 z-score
CCGATTAACATCATCTATTAGTCTGATGTTAATCGGGTCTTGATTCGCTTGACGCTGCTG	-0.532 z-score	-0.367 z-score	-0.473 z-score	-0.726 z-score	-0.337 z-score
CCGATTAACATCAACGCCACTACTGATGTTAATCGGGTCTTGATTCGCTTGACGCTGCTG	0.0307 z-score	-0.665 z-score	-0.239 z-score	-0.83 z-score	-0.503 z-score
